40 sequences from the supplement of paper PMC10338343 can be followed below.

± gives the standard deviation. The entries are a selection whose mix differs from that of the whole data set.
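Note: 1 nM active piRISC with 0.1 nM target library at 33 °C single turnover.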

The subject of the test is MIWI (PIWIL1) piRISC loaded with L1MC piRNA (30 nt). The experiment in a line: pre-steady-state target cleavage rate (min^-1); MIWI and MILI are mouse PIWI proteins and EfPiwi is from a freshwater sponge; tags in brackets are library labels; higher = faster piRNA-guided slicing of the target. Conditions: guide: L1MC piRNA 5'p-UAACUAAAUACUAUGCAAGCUGUAGGUCCU; auxiliary factor: none (no GTSF1). Summed up:
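In HEPES–potassium acetate buffer at 33 °C, […] transcribed, DNA-blocked target RNA library was mixed with 1 nM active affinity-purified piRISC carrying one synthetic guide, with or without 500 nM GTSF1 partner protein, for 0–8 or 0–960 min. Uncleaved targets were sequenced and normalised to depth and to weakly complementary targets; three trials were pooled and k3 was capped at 0.0001 min^-1. The pre-steady-state cleavage rate followed from a burst-and-steady-state fit.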
In the case of UCCUGGAUGAGCAUGGAUAGUAUUUAGUUA, the “pre-steady-state target cleavage rate” value amounted to 0.0081 ± 0.0031. The figure for UCCUGGAUGUGCUUGCAUAGUAUUUGGUUA is 0.0359 ± 0.009; for UCCUGCUACAGGUUGCAUAGUUUUUAGUUA it is 0.0309 ± 0.008; for UGGACCUACAGCCUUGCAUAGUAUUUAGUUA it is 0.0496 ± 0.0085.

Turning to UCCUGGAUGAGCUAGCAUACUAUUUAGUUA, the “pre-steady-state target cleavage rate” value came to 0.00424 ± 0.0027. The value for UCCUGGUUCAGCUUGCAAAGUAUUUAGUUA was 0.0567 ± 0.014; that for UCCUGGAUGUGCUUGCAUAGUAUAAUGUUA was 0.00815 ± 0.0034; that for UGGACCUACAGCUUGGAUAGUAUUUAGAUA was 0.0235 ± 0.0046. The value for UCCACCUACAGCCUUGCAUAGUAUUUAGUUA was 0.039 ± 0.0056; that for UCCUCCUACAGGUUGCAUACUAUUUAGUUA was 0.0155 ± 0.0031. The figure for UCCUGGAUCAGCAUGCAUAGUUUUUAGUUA is 0.0123 ± 0.003. On to UCCUGGUACAGGUUGCAUAGUUUUUAGUUA, for which the “pre-steady-state target cleavage rate” value amounted to 0.0167 ± 0.0069.

Regarding UCCUGCUACAAGCUUGCAUAGUAUUUAGUUA, the “pre-steady-state target cleavage rate” value came out at 0.0289 ± 0.0068.

In the case of UCGACCUACACCUUGCAUAGUAUUUUCAAA, the “pre-steady-state target cleavage rate” value is 0.00261 ± 0.0023. Turning to UCCUGGAUCAGCUUGCAUAGUAUUAAGUUA, the “pre-steady-state target cleavage rate” value came out at 0.0192 ± 0.0072. The figure for UCGACCUACAGGUUGCAUAGAAUUUAGUUA is 0.0138 ± 0.0036; for UCCUGGAUGUGGUUGCAUAGUAUUUACUUA it is 0.00537 ± 0.0033; for AGGACCUAGAGCUAGCAUAGUAUUUAGUUA it is 0.0238 ± 0.0054.

UCCUGGAUGUGCUUGCAUACUAUUUUGUUA: the “pre-steady-state target cleavage rate” value turned out to be 0.0101 ± 0.0021.

In the case of AGGACGUUCAGCUUGCAUAGUAUUUAGUUA, the “pre-steady-state target cleavage rate” value was 0.0669 ± 0.01. The figure for UCGUCCUACAGCUUCCAUAGUAUUUAGUUA is 0.0031 ± 0.0013; for ACGACCUACAGCUUGCAUAGUAUUUAGAAA it is 0.0289 ± 0.0092. With UCGAGGAACAGCUUGCAUAGUAUUUACAAA, the “pre-steady-state target cleavage rate” value amounted to 0.00349 ± 0.0022. The figure for UCCUGGUACAGCUUGGAUAGUAUUUAGUAA is 0.0149 ± 0.0041; for UCCUGGAUGAGCUUGCAUUGUUUUUAGUUA it is 0.00347 ± 0.0022. The figure for UGGACCACAGCUUGCAUAGUAUUUAGUUA is 0.0744 ± 0.015; for UCCUGGAUGUCCGUUGCAUAGUAUUUAGUUA it is 0.00402 ± 0.003; for UGGACCUACAGCUUGCAUAGUAUUUAUGUUA it is 0.0265 ± 0.0042. UCCUCCUACAGCUUGCAUAGUGAUUUAGUUA: the “pre-steady-state target cleavage rate” value stood at 0.00444 ± 0.002. The figure for UCCUGGAACAGCUUGCAUAGUAUUUAGUAA is 0.0337 ± 0.0083. Take UCGACCUACAGCUAGCAUUGUAUUUAGUUA: the “pre-steady-state target cleavage rate” value is 0.00769 ± 0.0019. On to AGGACCUACAGCUUGCAUAGAAUUAAGUUA, for which the “pre-steady-state target cleavage rate” value was determined as 0.00983 ± 0.004. The figure for UCCUGCUACAGCUUGCAUUGUAAUUAGUUA is 0.00988 ± 0.0039. On to UCCACCAACAGCUUGCAUAGUAAUUAGUUA, for which the “pre-steady-state target cleavage rate” value was determined as 0.024 ± 0.0052. The value for UCCUGCUACAGCUAGCAAAGUAUUUAGUUA was 0.00787 ± 0.0023. Consider UCCUGGUACAGCUUGCUUAGUAUUUAGAUA, for which the “pre-steady-state target cleavage rate” value stood at 0.00898 ± 0.002.

For UCCUGGAAGAGCUAGCAUAGUAUUUAGUUA, the “pre-steady-state target cleavage rate” value was 0.00934 ± 0.0044. The figure for UCCUCCUAGAGCUUGCAUAGUAUUUAGUUA is 0.0328 ± 0.0048; for UCCUGGAUCAGCUUGGAUAGUAUUUAGUAA it is 0.0253 ± 0.0056; for UCCACCUACAGCUUGCAUAGUAUUUGAGUUA it is 0.0232 ± 0.005.
